In the supplement of paper PMC3722116:
Growth of fresh clinical P. falciparum isolates by hypoxanthine uptake over 42 h; for most isolates 1.6-1,647 nM mefloquine, 0.044-87 nM artesunate, 10-10,256 nM chloroquine, 2.4-236 nM lumefantrine. EC50, lower = more sensitive; slope from the same fit, higher = steeper. No active / inactive call. Fits with a coefficient of variation above 100% are not listed here; 15-28% of fits exceed 15%. Isolates are numbered anew.

Experiments:
chloroquine [1] = compound: T1, CCN(CC)CCCC(C)Nc1ccnc2cc(Cl)ccc12 [chloroquine]; assay: slope of the dose-response curve (dimensionless); higher = steeper concentration-effect curve
Experimental: (§1)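 Hypoxanthine uptake by fresh isolates, duplicate serial dilutions, 24 h of drug plus 18 h after the label; sigmoid fit per isolate.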

lumefantrine [2] = compound: T2, CCCCN(CCCC)CC(O)c1cc(Cl)cc2c1-c1ccc(Cl)cc1/C2=C/c1ccc(Cl)cc1 [lumefantrine]; assay: as above
Experimental: as §1

artesunate [3] = compound: T3, C[C@H]1[C@H](OC(=O)CCC(=O)O)O[C@@H]2O[C@@]3(C)CC[C@H]4[C@H](C)CC[C@@H]1[C@@]24OO3 [artesunate]; assay: as above
Experimental: as §1

mefloquine [4] = compound: T4, OC(c1cc(C(F)(F)F)nc2c(C(F)(F)F)cccc12)C1CCCCN1 [mefloquine]; assay: as above
Experimental: as §1

chloroquine [5] = compound: T1, chloroquine
Experimental: as §1

lumefantrine [6] = compound: T2, lumefantrine
Experimental: as §1

artesunate [7] = compound: T3, artesunate
Experimental: as §1

mefloquine [8] = compound: T4, mefloquine
Experimental: as §1

Test System	slope (chloroquine [1])	slope (lumefantrine [2])	slope (artesunate [3])	slope (mefloquine [4])	EC50 of parasite growth (chloroquine [5]) [µg/mL]	EC50 of parasite growth (lumefantrine [6]) [µg/mL]	EC50 of parasite growth (artesunate [7]) [µg/mL]	EC50 of parasite growth (mefloquine [8]) [µg/mL]
Plasmodium falciparum isolate 484 (pfmdr1 allele: 1042D, pfmdr1 copies: 1)	4.02	2.6	9.61	2.4	0.293	0.00807	0.00163	0.0225
Plasmodium falciparum isolate 393 (pfmdr1 allele: 86N, 1042N, pfmdr1 copies: 2)	6.11	1.6	12.1	2.27	0.192	0.0301	0.00195	0.0481
Plasmodium falciparum isolate 251 (pfmdr1 allele: 86N, 1042N, pfmdr1 copies: 2)	3.5	2.58	3.34	2.95	0.343	0.0193	0.000897	0.0423
Plasmodium falciparum isolate 85 (pfmdr1 allele: 86N, 1042N, pfmdr1 copies: 1)	2.69	1.89	2.33	1.78	0.349	0.00366	0.000486	0.00516
Plasmodium falciparum isolate 389 (pfmdr1 allele: 86N, 1042N, pfmdr1 copies: 3)	2.41	3.46	10	3.57	0.0396	0.0367	0.000781	0.0835
Plasmodium falciparum isolate 75 (pfmdr1 allele: 86N, 1042N, pfmdr1 copies: 1)	9.64	2.62	6.31	2.51	0.175	0.0283	0.00132	0.0361
Plasmodium falciparum isolate 150 (pfmdr1 allele: 86N, 1042N, pfmdr1 copies: 1)	3.69	3.01	4.43	1.79	0.0687	0.00957	0.00052	0.00709
Plasmodium falciparum isolate 214 (pfmdr1 allele: 86N, 1042N, pfmdr1 copies: 2)	3.66	2.42	10	3.37	0.13	0.0515	0.00107	0.0832
Plasmodium falciparum isolate 344 (pfmdr1 allele: 86N, 1042N, pfmdr1 copies: 2)	2.41	3.08	9.51	2.26	0.0551	0.0101	0.00157	0.0346
Plasmodium falciparum isolate 91 (pfmdr1 allele: 86N, 1042N, pfmdr1 copies: 2)	1.86	7.9	10	3.16	0.0511	0.0405	0.000482	0.0258
Plasmodium falciparum isolate 293 (pfmdr1 allele: 86N, 1042N, pfmdr1 copies: 2)	3.08	1.45	3.52	1.47	0.0884	0.00402	0.000809	0.0242
Plasmodium falciparum isolate 106 (pfmdr1 allele: 86Y, pfmdr1 copies: 1)	12.4	2.34	10	2.73	0.173	0.0145	0.000482	0.00483
Plasmodium falciparum isolate 353 (pfmdr1 allele: 86N, 1042N, pfmdr1 copies: 1)	6.22	1.68	5.33	2.91	0.224	0.0336	0.000367	0.0257
Plasmodium falciparum isolate 228 (pfmdr1 allele: 86Y, pfmdr1 copies: 1)	4.06	2.42	7.71	3.46	0.243	0.0214	0.000543	0.0145
Plasmodium falciparum isolate 53 (pfmdr1 allele: 86N, 1042N, pfmdr1 copies: 2)	9.96	3.66	6.6	2.21	0.0446	0.016	0.00133	0.0348
Plasmodium falciparum isolate 22 (pfmdr1 allele: 86N, 1042N, pfmdr1 copies: 1)	3.02	2.1	6.06	2.15	0.0602	0.0331	0.00123	0.0319
